Hit rate of the full screen: of about 110,000 compounds, about 230 (0.21%) showed an effect of 50% or more. The list shows a part of the results.
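Further: 30 min substrate incubation versus DMSO and 10 µM JCP410 controls.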

DPAP1, sequence (Q8IIJ9 whole entry, looked up): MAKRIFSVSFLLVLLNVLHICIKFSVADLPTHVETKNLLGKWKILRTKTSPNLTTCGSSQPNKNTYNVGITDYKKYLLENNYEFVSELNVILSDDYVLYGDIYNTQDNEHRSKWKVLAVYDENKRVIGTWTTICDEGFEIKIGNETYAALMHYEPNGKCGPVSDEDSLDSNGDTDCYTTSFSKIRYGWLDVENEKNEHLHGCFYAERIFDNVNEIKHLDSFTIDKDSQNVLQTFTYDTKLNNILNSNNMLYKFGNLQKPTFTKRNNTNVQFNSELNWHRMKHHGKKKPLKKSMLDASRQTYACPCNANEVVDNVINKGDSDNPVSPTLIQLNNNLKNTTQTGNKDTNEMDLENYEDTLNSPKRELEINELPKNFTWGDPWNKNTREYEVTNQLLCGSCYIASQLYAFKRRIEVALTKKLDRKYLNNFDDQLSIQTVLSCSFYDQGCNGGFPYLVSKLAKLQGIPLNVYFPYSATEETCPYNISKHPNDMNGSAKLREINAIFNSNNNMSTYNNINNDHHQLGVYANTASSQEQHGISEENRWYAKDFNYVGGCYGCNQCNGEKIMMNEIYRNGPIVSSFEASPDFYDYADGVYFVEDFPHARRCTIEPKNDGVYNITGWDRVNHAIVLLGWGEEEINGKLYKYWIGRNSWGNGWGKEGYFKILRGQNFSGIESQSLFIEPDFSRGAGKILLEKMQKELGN

The experiment has as its target DPAP1 (Plasmodium falciparum, UniProt Q8IIJ9). The experiment in a line: primary screen, percent inhibition; read by cleavage of a fluorogenic dipeptide substrate; higher = more effect of the substance. On the set-up: species or system P. falciparum D10 trophozoite lysates; single well.
Take `Cc1ccc(C2CC(=O)C(/C=N/CCN3CCN(C(=O)C(C)C)CC3)=C(O)C2)cc1` (stereo not drawn): the “% Inhibition @ 10 uM” value was -7.3%. The result for `CC1Cc2cc(C(=O)C3=C(O)C(=O)N(CCN(C)C)C3c3cccs3)ccc2O1` (stereo not drawn) reads -10%; that for `Cc1sc2ncn(CC(=O)NCc3ccc(F)cc3)c(=O)c2c1S(=O)(=O)N1CCC(C)CC1`, -1.2%; that for `NC(=O)C1CCN(Cc2ccc(-c3ccccc3)cc2)CC1`, 0.0792%.

As for `CSc1ncc(C(=O)Nc2ccc(Cl)cn2)c(C)n1`, the “% Inhibition @ 10 uM” value is -5%. For `COc1ccc(Br)cc1CN1CCCCC1` the value was 4.9%; for `CCC(C)NC(=O)CCSc1ccc(C)cc1` (stereo not drawn), 1.87%; for `Cc1nc(SCC(=O)Nc2ccc(Cl)cc2)nc2c1CCCC2`, 6.79%. For `COc1cc2c(cc1OC)CN(C(=O)CSc1nnc3ccccn13)CC2` the value was 0.778%; for `Cc1ccc(-n2c(CCC(=O)O)ccc2-c2cccs2)cc1`, 1.31%. The result for `CCOc1ccc2nc(NS(=O)(=O)c3ccccc3C)sc2c1` reads 3.91%; that for `CCOc1ccc2c(=O)c(Oc3ccc(C(C)(C)C)cc3)coc2c1`, 5.5%; that for `CC1CN=C(/C=C(\O)c2ccc(Br)cc2)C(=O)N1` (stereo not drawn), 4.09%. Regarding `O=S(=O)(Nc1ccc(S(=O)(=O)NC2CCCCC2)cc1)c1ccccc1`, the “% Inhibition @ 10 uM” value was determined as 1.88%. In the case of `COc1ccc(CCNc2nc(-c3cccnc3)cs2)cc1OC`, the “% Inhibition @ 10 uM” value is 0.0539%. The result for `Cc1cc(C)c(S(=O)(=O)Nc2ccc(O)c(Cl)c2)cc1C` reads -1.52%. For `O=C(CCCc1ccccc1)Nc1ccc(C(=O)O)cc1` the value was 5.66%. For `c1ccc2c(c1)nc(NC1CCCCC1)c1nnnn12` the value was -2.47%; for `CC(=O)c1ccc2[nH]c3c(c2c1)CCCC3=O`, -4.18%.

Consider `CN1CCN(C(=O)c2cnn(-c3ccccc3Cl)c2NC(=O)c2ccco2)CC1`, for which the “% Inhibition @ 10 uM” value is on record as 5.49%.

On to `OC(Cn1nnnc1-c1ccccc1)Cn1nnnc1-c1ccccc1`, for which the “% Inhibition @ 10 uM” value came out at 1.24%. For `CC(=O)c1ccc(NC(=O)c2cc3ccccc3oc2=O)cc1` the value was 4.33%.

As to `O=c1oc2ccccc2c(O)c1Cc1ccccc1`, the “% Inhibition @ 10 uM” value was found to be 14.5%. For `COc1cccc(CN2CCN(Cc3ccc(Br)cc3)CC2)c1` the value was -7.93%; for `COc1ccccc1-c1nnc(C2CCN(S(=O)(=O)c3cccc(Cl)c3)CC2)o1`, -1.08%; for `O=C(COc1ccc([N+](=O)[O-])cc1)NCCc1ccccc1`, -1.29%.

`Cc1ccc(C(CCNC(=O)c2cccs2)c2ccco2)cc1` (stereo not drawn): the “% Inhibition @ 10 uM” value is -0.0735%. As to `CC(O)(C#CCO)c1ccc2ccccc2c1` (stereo not drawn), the “% Inhibition @ 10 uM” value is -0.0372%. For `COc1ccc(OC)c(CCNC(=O)Cn2sc3nc(C)cc(C)c3c2=O)c1` the value was -1.37%. For the compound `CCN(CC)CCNC(=O)Cn1nc(C)c2sc3ccccc3c2c1=O`, the “% Inhibition @ 10 uM” value is on record as -2.45%. The result for `CC1=NC2=C(C(=O)CC(C)(C)C2)C(c2cccc(Cl)c2Cl)/C1=C(\O)OC(C)C` (stereo not drawn) reads -0.445%; that for `COc1ccccc1OCCCn1c(C)c(/C=C2/C(=N)N3C=CSC3=NC2=O)c2ccccc21`, 3.47%. For `CSc1nc(C)c(-c2ccncc2)c(-c2cccnc2)c1C#N` the value was -2.45%; for `O=C(C1CCC(CNS(=O)(=O)c2ccc(Cl)cc2)CC1)N1CCCC1` (stereo not drawn), 0.718%; for `O=C(NCCc1ccccc1)C1CCN(S(=O)(=O)c2ccc3nc(O)ccc3c2)CC1`, 2.24%. The result for `O=C(c1ccccc1SCc1ccc(F)cc1)N1CCOCC1` reads -0.736%; that for `CCCCN(Cc1ccccc1)C1CCN(C)CC1`, -9.33%. As for `Cc1ccc(C2CC(C(F)(F)F)n3ncc(C(=O)NCC4CCCO4)c3N2)cc1` (stereo not drawn), the “% Inhibition @ 10 uM” value came out at 7.93%.

In the case of `Cc1ccc2nc3c(O)n(C)cnc-3c2c1`, the “% Inhibition @ 10 uM” value turned out to be 5.06%.

In the case of `COC(=O)/C(=C(/F)Sc1ccc(O)c(C)c1)C(F)(F)F`, the “% Inhibition @ 10 uM” value was -3.41%. For `Cc1ncc(CO)c2cc(-c3nc4ccncc4[nH]3)c(=O)oc12` the value was -4.58%; for `Cc1nc2ccccc2n1C(=O)N(C)C`, -4.7%; for `Cc1cc(C)c2nc(N3CCCC(C(=O)NCc4ccc5c(c4)OCO5)C3)sc2c1` (stereo not drawn), 4.95%. Regarding `CCOC(=O)N1CCC(N2CCN(c3ccc(F)cc3)CC2)CC1`, the “% Inhibition @ 10 uM” value is given as -2.95%.

For `Cc1nn(CC(=O)NCCCN2CCc3ccccc3C2)c(=O)c2cc3cc(F)ccc3n12`, the “% Inhibition @ 10 uM” value was 0.0198%.

Turning to `CCN(CC)CCCNc1ncnc2c1cnn2C`, the “% Inhibition @ 10 uM” value is reported as 2.88%.

Take `Cc1onc(-c2c(F)cccc2Cl)c1C(=O)Nc1ccc2c(c1)NC(=O)CS2`: the “% Inhibition @ 10 uM” value is -20.7%. The result for `Cc1ccccc1-c1nc(CS(=O)(=O)CC(=O)NCc2ccc(OC(C)C)cc2)c(C)o1` reads -5.15%; that for `CN1CCN(C(=O)c2ccc(CS(=O)(=O)c3ccc(Br)cc3)o2)CC1`, 2.14%. The result for `Cc1ccc(S(=O)(=O)c2cc3c(=O)n4ccccc4nc3n(CC3CCCO3)c2=N)cc1` (stereo not drawn) reads 0.222%.

As to `Cc1ccc(C(=O)CC#N)cc1`, the “% Inhibition @ 10 uM” value was -4.74%.

(Values after paper PMC6919601, “Identification of Plasmodium dipeptidyl aminopeptidase allosteric inhibitors by high throughput screening” (PLoS ONE, 2019).)
